Test results as given in patent publication US20230233697A1, “CYTOTOXIC BENZODIAZEPINE DERIVATIVES” (priority 2014, published 2023).

Experiments:
[1] = tested on: NCI-H1703 NSCLC xenografts; assay: Antitumor activity against NCI-H1703 NSCLC xenografts (Example 33); assay type: in vivo, mouse; settings: SCID mice
Description: Female CB.17 SCID mice, 6 weeks old, were received from Charles River Laboratories. Mice were inoculated with 5×10^6 NCI-H1703 tumor cells suspended in 0.2 ml 50% matrigel/serum free medium by subcutaneous injection in the right flank. When tumor volumes reached approximately 100 mm^3 (day 16 post inoculation), animals were randomized based on tumor volume into 4 groups of 6 mice each. Mice received a single IV administration of vehicle control (0.1 ml/mouse) or huML66-90 conjugate at 5, 20 or 50 μg/kg based on compound 90 concentration on day 1 (day 17 post inoculation).
Tumor size was measured twice to three times weekly in three dimensions using a caliper. The tumor volume was expressed in mm^3 using the formula V=Length×Width×Height×½. A mouse was considered to have a partial regression (PR) when tumor volume was reduced by 50% or greater, complete tumor regression (CR) when no palpable tumor could be detected. Tumor volume was determined by StudyLog software.
Tumor growth inhibition (T/C Value) was determined using the following formula:
T/C (%)=Median tumor volume of the treated/Median tumor volume of the control×100.
Tumor volume was determined simultaneously for treated (T) and the vehicle control (C) groups when tumor volume of the vehicle control reached predetermined size of 1000 mm^3. The daily median tumor volume of each treated group was determined, including tumor-free mice (0 mm^3). According to NCI standards, a T/C≤42% is the minimum level of anti-tumor activity. A T/C<10% is considered a high anti-tumor activity level.

Detroit-562 SCC-HN cells = assay: In vitro cytotoxic assay for huML66-90, Detroit-562; assay type: cell-based; settings: presence of excess unconjugated antibody
Description: The ability of huML66-90 conjugate to inhibit cell growth was measured using in vitro cytotoxicity assays. Target cells were plated at 1-2,000 cells per well in 100 μL in complete RPMI media (RPMI-1640, 10% fetal bovine serum, 2 mM glutamine, 1% penicillin-streptomycin, all reagents from Invitrogen). Antibodies were diluted into complete RPMI media using 3-fold dilution series and 100 μL were added per well. The final concentration typically ranged from 3×10^-8 M to 4.6×10-12 M. Cells were incubated at 37° C. in a humidified 5% CO2 incubator for 5-6 days. Viability of remaining cells was determined by colorimetric WST-8 assay (Dojindo Molecular Technologies, Inc., Rockville, Md., US). WST-8 is reduced by dehydrogenases in living cells to an orange formazan product that is soluble in tissue culture medium. The amount of formazan produced is directly proportional to the number of living cells. […] Plates were analyzed by measuring the absorbance at 450 nm (A450) in a multiwell plate reader. Background A450 absorbance of wells with media and WST-8 only was subtracted from all values. The percent viability was calculated by dividing each treated sample value by the average value of wells with untreated cells. […] Dose-response curves were generated by non-linear regression and the EC50 value of each curve was calculated using GraphPad Prism (GraphPad software, San Diego, Calif.). […]

NCI-H292 NSCLC cells = assay: In vitro cytotoxic assay for huML66-90, NCI-H292; assay type: cell-based; settings: for NCI-H292 EC40 in pM: NCI-H292 cells
Description: The ability of huML66-90 conjugate to inhibit cell growth was measured using in vitro cytotoxicity assays. Target cells were plated at 1-2,000 cells per well in 100 μL in complete RPMI media (RPMI-1640, 10% fetal bovine serum, 2 mM glutamine, 1% penicillin-streptomycin, all reagents from Invitrogen). Antibodies were diluted into complete RPMI media using 3-fold dilution series and 100 μL were added per well. The final concentration typically ranged from 3×10^-8 M to 4.6×10-12 M. Cells were incubated at 37° C. in a humidified 5% CO2 incubator for 5-6 days. Viability of remaining cells was determined by colorimetric WST-8 assay (Dojindo Molecular Technologies, Inc., Rockville, Md., US). WST-8 is reduced by dehydrogenases in living cells to an orange formazan product that is soluble in tissue culture medium. The amount of formazan produced is directly proportional to the number of living cells. WST-8 was added to 10% of the final volume and plates were incubated at 37° C. in a humidified 5% CO2 incubator for an additional 2-4 hours. Plates were analyzed by measuring the absorbance at 450 nm (A450) in a multiwell plate reader. Background A450 absorbance of wells with media and WST-8 only was subtracted from all values. The percent viability was calculated by dividing each treated sample value by the average value of wells with untreated cells. Percent viability=100*(A450 treated sample−A450 background)/(A450 untreated sample−A450 background). The percent viability value was plotted against the antibody concentration in a semi-log plot for each treatment. Dose-response curves were generated by non-linear regression and the EC50 value of each curve was calculated using GraphPad Prism (GraphPad software, San Diego, Calif.). In vitro cytotoxic activity

B1: huML66-90 (conjugate)
heavy: QVQLQESGPGLVKPSETLSLTCTVSGLSLASNSVSWIRQPPGKGLEWMGVIWNHGGTDYNPSIKSRLSISRDTSKSQVFLKMNSLTAADTAMYFCVRKGGIYFDYWGQGVLVTVSS[gap - human IgG1 constant region]
light: DTVLTQSPSLAVSPGERATISCRASESVSTLMHWYQQKPGQQPKLLIYLASHRESGVPARFSGSGSGTDFTLTIDPMEAEDTATYYCQQSRNDPWTFGQGTKLELKRTVAAPSVFIFPPSDEQLKSGTASVVCLLNNFYPREAKVQWKVDNALQSGNSQESVTEQDSKDSTYSLSSTLTLSKADYEKHKVYACEVTHQGLSSPVTKSFNRGEC
Question: Which anti-tumor activity level ([1]; single IV dose 20 μg/kg) does the source give for B1 here?
Answer: The anti-tumor activity level was “highly active (A T/C<10% is considered a high anti-tumor activity level)”.

Question: And the anti-tumor activity level ([1]; single IV dose 50 μg/kg)?
Answer: Its anti-tumor activity level is “highly active (A T/C<10% is considered a high anti-tumor activity level)”.

Question: What about the “minimal effective dose (MED)” value ([1]; single IV dose) of the same molecule?
Answer: The value was 0.02 mg/kg.

Question: And the EC50 (Detroit-562 SCC-HN cells)?
Answer: The EC50 was ~2 nM.

Question: And the EC50 (NCI-H292 NSCLC cells; NCI-H292 NSCLC cells, presence of excess unconjugated antibody)?
Answer: Its EC50 is ~2 nM.

Question: And the “NCI-H292 EC40 in pM” value (NCI-H292 NSCLC cells; 5-6 days, WST-8, no block (Table 1))?
Answer: The value was 12 pM.

Question: What about the “NCI-H292 EC40 in pM” value (NCI-H292 NSCLC cells; + block (excess unconjugated antibody) (Table 1)) of the same molecule?
Answer: Its value is 1,570 pM.
